Measurements taken from patent US10220090B2, “BCMA Antigen binding proteins” (Amgen Inc., priority 2012, dated 2019).

B1: P71567.3: light chain SEQ ID NO:331, heavy chain SEQ ID NO:332 (antibody)
heavy: EVQLLESGGALVQPGGSLRLSCAASGFTFSSYAMNWVRQAPGKGLEWVSAISVGGGTYYADSVKGRFTISRDNSKNTLYLHVNSLRAEDTAVYYCAKDQVTMVRGVWYYYGLDVWGQGTTVTVSS[omitted - human IgG1 constant region]
light: VIVLIQSPLSLPVTPGEPASISCRSSQSLLHSNGNNYLDWYLQKPGQSPHLLISLGSQRTSGVPDRFSGSGSGTDFTLKISRVEAEDVGFYYCMQALQPPRRFGQGTKLEIKRTVAAPSVFIFPPSDEQLKSGTASVVCLLNNFYPREAKVQWKVDNALQSGNSQESVTEQDSKDSTYSLSSTLTLSKADYEKHKVYACEVTHQGLSSPVTKSFNRGEC
B2: P71568.3: light chain SEQ ID NO:333, heavy chain SEQ ID NO:334 (antibody)
heavy: B1 heavy with S31N, G56D, R86S, T90S, M102L
light: B1 light

Assay: Differential Scanning Calorimetry (DSC) thermostability
Format: physicochemical
Conditions: second campaign covariance muteins
Text: Differential Scanning calorimetry (DSC) was used to compare the thermostability of parent and engineered antibodies. DSC is a thermodynamical tool for direct assessment of the heat energy uptake, which occurs in a sample within a regulated increase or decrease in temperature. DSC is commonly employed to assess the thermal and conformational stability of a protein. The melting temperature of a protein, or of individual domains, can be obtained from the DSC profile, and if the reaction is reversible the thermodynamic parameters of the unfolding can be determined. A protein is considered more thermostable when the Tm (transition temperature) is higher. When thermostability data are compared to other bioanalytical methods, like size exclusion chromatography (SEC), it has been observed that a correlation between greater thermostability (higher Tm) and decreased aggregation. […]
DSC was carried out using a MicroCal™ VP-Capillary DSC system (GE Healthcare, Piscataway, N.J.) equipped with an auto-sampler. The temperature differences between the reference and sample cells are continuously measured, and calibrated to power units. […] The solution reference and protein samples were measured in a 135 μL cell from 20 to 110° C. at a heating rate of 60° C./hour. […] Heat capacity during protein melting was calculated by normalizing over protein concentration.

Molecule | Tm (DSC) [°C]
B1 | 72.8
B2 | 76.6

Changes are numbered by the printed parent chain.
